# The full ranking holds about 33,000 sequences; the median of “E-score (-0.5 to 0.5)” is about -0.053, and the highest 2% start at about 0.37. The list shows a part of the results.
# Molecular target: Hap1 (UniProt P0CE41)
# Experiment: PBM E-score (8-mer binding enrichment) (E-score (-0.5 to 0.5)); higher = stronger / more preferred TF binding; most listed sequences are background and not binding sites
# Settings: protein concentration: 200 nM; construct: GST-DNA-binding domain
# Experimental: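 Universal 'all 10-mer' protein binding microarrays (Agilent AMADID 015681) probed with GST-tagged S. cerevisiae TFs (full-length or DBD) made by in vitro transcription/translation (PURExpress), about 100-200 nM. Bound TF was detected with fluorescent anti-GST. Each ungapped 8-mer (which stands for itself and its reverse complement) is scored by the PBM enrichment score (E-score), a modified Wilcoxon-Mann-Whitney statistic from -0.5 to +0.5, computed with the Universal PBM Analysis Suite. Scale: above 0.35 generally sequence-specific binding.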
# Chain of UniProt P0CE41 (P0CE41 whole entry): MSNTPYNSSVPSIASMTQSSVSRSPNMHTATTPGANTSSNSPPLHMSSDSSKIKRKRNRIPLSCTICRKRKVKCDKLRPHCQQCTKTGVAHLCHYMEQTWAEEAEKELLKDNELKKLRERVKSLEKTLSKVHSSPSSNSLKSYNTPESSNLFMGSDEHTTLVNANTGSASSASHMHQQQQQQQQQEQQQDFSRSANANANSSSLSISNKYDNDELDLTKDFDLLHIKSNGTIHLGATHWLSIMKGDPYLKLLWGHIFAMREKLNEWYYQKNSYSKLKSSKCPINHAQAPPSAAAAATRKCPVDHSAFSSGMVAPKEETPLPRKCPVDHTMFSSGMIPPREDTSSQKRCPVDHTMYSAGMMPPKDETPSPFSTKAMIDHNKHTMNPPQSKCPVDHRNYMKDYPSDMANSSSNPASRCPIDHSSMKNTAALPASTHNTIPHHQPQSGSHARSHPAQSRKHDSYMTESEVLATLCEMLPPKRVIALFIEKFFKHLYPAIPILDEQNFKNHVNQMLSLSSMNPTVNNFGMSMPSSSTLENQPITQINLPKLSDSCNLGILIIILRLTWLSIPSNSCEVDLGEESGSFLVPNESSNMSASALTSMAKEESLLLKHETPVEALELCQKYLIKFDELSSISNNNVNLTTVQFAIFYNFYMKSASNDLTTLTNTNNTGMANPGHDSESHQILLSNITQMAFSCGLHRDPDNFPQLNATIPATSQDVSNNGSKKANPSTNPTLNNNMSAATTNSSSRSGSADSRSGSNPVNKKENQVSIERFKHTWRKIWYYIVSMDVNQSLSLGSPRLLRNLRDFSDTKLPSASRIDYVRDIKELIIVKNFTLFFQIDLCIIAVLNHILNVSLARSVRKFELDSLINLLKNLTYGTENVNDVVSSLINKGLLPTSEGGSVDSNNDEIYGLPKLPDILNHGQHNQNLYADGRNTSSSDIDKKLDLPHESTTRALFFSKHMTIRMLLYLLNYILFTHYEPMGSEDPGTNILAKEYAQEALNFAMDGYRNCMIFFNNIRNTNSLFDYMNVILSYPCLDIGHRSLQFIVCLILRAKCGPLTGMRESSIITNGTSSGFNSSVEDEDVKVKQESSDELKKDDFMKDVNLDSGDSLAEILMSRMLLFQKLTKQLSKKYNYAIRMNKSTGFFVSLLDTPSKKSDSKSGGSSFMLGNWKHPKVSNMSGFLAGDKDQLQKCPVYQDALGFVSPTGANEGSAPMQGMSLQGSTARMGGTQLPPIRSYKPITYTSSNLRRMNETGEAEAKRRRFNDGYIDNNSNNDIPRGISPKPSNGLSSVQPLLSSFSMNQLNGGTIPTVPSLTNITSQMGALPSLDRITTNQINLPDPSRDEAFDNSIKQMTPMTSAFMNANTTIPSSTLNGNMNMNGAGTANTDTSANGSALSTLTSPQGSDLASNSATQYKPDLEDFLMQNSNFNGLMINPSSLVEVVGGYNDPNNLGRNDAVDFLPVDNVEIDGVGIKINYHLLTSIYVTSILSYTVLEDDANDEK
row,Sequence,PBM E-score
1,AGCGCACA,-0.12
2,CACGCGTG,0.145
3,TACCCAGA,-0.252
4,CCGATCAG,0.203
5,CGTAGTTA,0.144
6,ATCGGGAA,0.339
7,CCCCGTTC,0.127
8,AACCGTAC,-0.0371
9,CACCGAAC,0.194
10,ACGTTAAT,0.0964
11,GATAAGCC,0.251
12,CCGCTCCA,0.0885
13,ACCCACCG,0.204
14,TGGCGTAA,-0.27
15,CCTCAAGG,-0.168
16,CAAGGCAG,-0.125
17,AGGCGTGA,-0.294
18,ATGCAGGC,-0.0748
19,CGATCCAC,0.0407
20,AAAGAGGC,-0.139
21,AAGGGAAT,-0.161
22,ACTGACAC,-0.108
23,ATTCCACC,0.253
24,GAGCCGAA,0.252
25,ATCGAAGA,0.115

row,Sequence,PBM E-score
1,GCCCCCAC,-0.0961
2,CTCCTCTC,-0.266
3,TACAGCCA,-0.158
4,TTCCACAA,0.0168
5,CGTAATAA,0.0082
6,ACGAGGAC,0.109
7,CGCACTAA,0.0582
8,CGTATCGC,0.208
9,GCCTTACA,-0.164
10,CGGATCAC,0.313
11,AGACAGCC,-0.0647
12,CCCTTTAA,-0.0773
13,TATACGGA,0.293
14,AAGTTCTC,0.0378
15,AGTAAGCG,0.0229
16,TATGCTAA,-0.132
17,CCACCGTC,-0.0163
18,CACGCCTG,-0.151
19,AAGTACCG,0.272
20,CTGAACGA,-0.278
21,ATGCCGTA,-0.0192
22,CGCATTGC,-0.0689
23,AACCGATC,0.156
24,GTCACATA,-0.209
25,CATCTCAC,-0.194

row,Sequence,PBM E-score
1,CTCTCTCA,-0.0913
2,CACACACC,0.0188
3,CTCCGGCC,0.358
4,AAGGATTG,-0.0802
5,ACATCGTG,-0.138
6,AGCACCAA,-0.114
7,CCATCCGC,0.163
8,AAGTTTGT,-0.12
9,ACATTTAG,-0.3
10,TCGATCGA,-0.0911
11,AATCCTGG,-0.0356
12,GCTCGCGA,0.0705
13,GATAGGTA,-0.0419
14,CGCCGTGC,0.113
15,CATGCCAG,-0.262
16,GTTCTCTA,-0.157
17,CGCTTAGA,-0.00319
18,GAAGGTGC,-0.0411
19,AAACCCTT,-0.0315
20,GATATCTA,-0.0499
21,CATCGCCA,0.116
22,ACGATGTC,-0.0765
23,AGCGTTAT,-0.0637
24,CCAAGATA,-0.0939
25,AACTGGCC,-0.0206

row,Sequence,PBM E-score
1,AGCTACAC,-0.234
2,CGGCTGAC,0.192
3,CTTCTCGC,0.1
4,CGGAGCCG,0.342
5,CGGTTGCA,0.00987
6,ACGAATCG,0.0848
7,GATACAGA,-0.131
8,AGCGAACG,-0.0429
9,ATTTCGCC,0.171
10,CGTTTCTA,-0.19
11,ATCATGAG,-0.175
12,GATACCTA,0.0375
13,CCCACGAA,-0.159
14,CTTAGGAC,-0.283
15,TACTAGCA,-0.0779
16,AGTGTTTG,-0.191
17,TCCAGTAA,-0.149
18,CAGAAGGG,-0.224
19,ATCCGCCC,0.243
20,GACACACA,-0.103
21,ACGCCACG,-0.0591
22,CCGCCAGA,0.0383
23,ACGGTCAC,-0.0165
24,AACACCTA,-0.29
25,CACGCAAC,0.0291

row,Sequence,PBM E-score
1,CCCATGCC,0.0775
2,CAGCAGCC,-0.15
3,CGTACCAC,-0.0759
4,GCTACCCC,-0.0578
5,AGTGACCA,-0.103
6,GGCGCGAA,0.217
7,GTGAACAC,-0.0677
8,ATATATTA,0.0579
9,TCTTAGCA,-0.206
10,AGTAAGTG,-0.157
11,CGCGCGAC,0.2
12,AAAGGGGA,-0.0685
13,TCCGAACA,0.381
14,ACACTGTG,-0.271
15,ACACGCAC,-0.0339
16,ACACCTAT,-0.134
17,TGTTAGAA,-0.229
18,GTAACTTA,-0.0938
19,GGTTTCAC,0.107
20,GGCTGGGA,0.0713
21,CATCCCGA,0.176
22,GCCTCTCA,-0.127
23,GTATAAAA,0.0885
24,TCGTTAGA,-0.126
25,CTGTTGGC,-0.164

row,Sequence,PBM E-score
1,ATGCGGAG,0.222
2,AGTTCTAT,-0.0593
3,ACAACATG,-0.194
4,ACGAGTGA,-0.317
5,CGATACTC,0.24
6,CCGTGAGG,-0.0134
7,CCCAGGCA,-0.299
8,AGACGTAC,-0.119
9,AACCTCTC,-0.187
10,AACGGCCG,0.405
11,CGGTGTAG,0.28
12,ATAGTACA,-0.0418
13,AGGGAAGG,-0.211
14,TAAATCTA,-0.0387
15,AGCTGCGC,-0.044
16,CCATTCTC,-0.0493
17,ACTTGCGC,-0.0186
18,AAGCATCA,-0.175
19,ACCACTTC,-0.0947
20,AACGCAAT,0.0802
21,TCTCAAGA,-0.0524
22,CGTATGGC,-0.165
23,GTCTTGGA,-0.204
24,CCGCGCCC,0.154
25,AAGAGTAC,-0.117

row,Sequence,PBM E-score
1,GGCCCGGA,0.409
2,AATAGAGC,-0.0666
3,CGAGGTCA,-0.0121
4,GCTCCCGA,-0.00497
5,CAAAATCA,-0.157
6,CCCGACAG,0.201
7,ATTACGAA,-0.0845
8,ACCCCAGC,-0.0676
9,ACGCAAAC,-0.187
10,CGGCATAG,0.0931
11,TATTTTAA,-0.0821
12,CCCATCAG,-0.211
13,AGGCCGGC,0.271
14,CCCGTTAG,0.263
15,ATATGAAT,0.0324
16,ATGAACTA,-0.0792
17,GATGGTGC,-0.29
18,AGGTGCTA,-0.132
19,ATACGTGA,-0.0894
20,CCCAGCCA,-0.101
21,CCTCGGTA,0.23
22,ATGTCTAG,-0.108
